Reference: PubChem BioAssay AID1347120 (National Center for Advancing Translational Sciences (NCATS), 2019)
Hit rate of the full screen: of about 390,000 compounds, about 930 (0.24%) were called active. Inconclusive results, whose numbers are uncertain, are shown with a selection of clear calls. Calls follow the shape of the dose curve; as a rule, active = well fitted activation curve with a large enough effect; inconclusive = small, poorly fitted or top-dose-only effect; inactive = no such curve, though single readings can be large or run the other way. Where the call is inconclusive, the potency comes from a doubtful curve fit.
Potency is read from the fitted curve at half-maximal effect; tags tell the direction and shape of the fitted curve.

Assay: qHTS for Suppressors of FUS Proteinopathy: Primary screen using FUS-linked yeast assay; also: nearly all actives have a fitted effect of over 55% in size;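 as to growth rescue (activation): plate controls were DMSO vehicle for no effect and reference control for full effect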
Conditions: S. cerevisiae FUS-expressing, OD600, 24 h; Potency: growth rescue; growth rescue (activation): at 76.6 µM (top of the series)
Summary of the method: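 Toxicity suppression screen in FUS-yeast. Cells induced with 2% galactose, starting OD 0.005, treated 24hr at 30C with compounds at multiple final concentrations; growth by OD600.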
For COc1ccc(-c2noc(C3CCCN(C(=O)Nc4cccc(C)c4)C3)n2)cc1 (configuration not stated), the Potency was inconclusive: 31.6 µM [activator, partial curve, poor fit].
In the case of CCCCn1c(N)c(N(CC(C)C)C(=O)CC2CCCCC2)c(=O)[nH]c1=O, the Potency is reported as inconclusive: 50.1 µM [activator, single point].
For Cc1ccn2c(NC3CCCCC3)c(-c3cccc(-c4cccc(Cl)c4)c3)nc2c1, the Potency was inconclusive: 25.1 µM [activator, partial curve, poor fit].
With CCC1CCCCN1CCCNC(=O)CSc1nc2nc(C)c(Cc3ccccc3Cl)c(C)n2n1 (configuration not stated) the Potency was inconclusive: 15.8 µM [activator, partial curve, poor fit].
With Cc1c(C(=O)Nc2cccnc2)oc2ccc(Br)cc12 the “growth rescue (activation)” value was inactive: 7.17%.
For O=C(Cc1ccccc1)Nc1ccc(N2CCOCC2)cc1N1CCOCC1, the “growth rescue (activation)” value was inactive: -4.52%.
In the case of COCCCNC(=O)CCC(=O)N1Cc2ccccc2Oc2ncccc21, the “growth rescue (activation)” value is reported as inactive: 5.36%.
For CC[C@@]12C(=O)N(c3ccccc3)C(=O)N1[C@H](c1ccc(Br)cc1)[C@@H]1C(=O)N(C(C)(C)C)C(=O)[C@@H]12, the Potency was inconclusive: 31.6 µM [activator, single point].
For COc1ccccc1OCCNS(=O)(=O)c1ccc2oc3ccccc3c2c1, the “growth rescue (activation)” value was inactive: 32.8%.
For Clc1ccc2nc(-c3ccco3)c(Cc3ccccc3)n2c1, the Potency was inconclusive: 31.6 µM [activator, partial curve, poor fit].
In the case of CCCCOCCCNC(=O)C[C@@H]1C[C@@]2(C(=O)OC)CCCCC=C2N(Cc2cccc3ccccc23)C1=O, the Potency is reported as inconclusive: 35.5 µM [activator, single point].
For O=C(NCC(c1ccccc1)c1ccccc1)c1nn(-c2ccccc2Cl)nc1CO, the “growth rescue (activation)” value was inactive: 8.16%.
In the case of CC(C)(C)OC(=O)CNC(=O)c1[nH]cnc1C(=O)N[C@@H](Cc1ccccc1)C(=O)OCc1ccccc1, the Potency is reported as inconclusive: 28.2 µM [activator, single point].
In the case of O=C(C1CCC(=O)N(C2CCCCCC2)C1)N1CCN(c2ccccc2Cl)CC1 (configuration not stated), the Potency is reported as inconclusive: 14.1 µM [activator, partial curve].
In the case of CNc1ccc(Br)cc(C(=O)/C=C/c2cc(OC)ccc2OC)c1=O, the Potency is reported as inconclusive: 11.2 µM [activator, partial curve, poor fit].
In the case of CCS(=O)(=O)N1Cc2ccccc2CC1C(=O)Nc1cccc(OC)c1 (configuration not stated), the “growth rescue (activation)” value is reported as inactive: 9.28%.
In the case of CCN1C=C(Cc2ccc(OC)cc2)C2=C(C1)C(c1ccc(OC)cc1)C(C#N)=C(N)O2 (configuration not stated), the Potency is reported as active: 35.5 µM.
In the case of CN1C(=O)Cc2cc(S(=O)(=O)CCC(=O)Nc3ccccc3)ccc21, the Potency is reported as inconclusive: 35.5 µM [activator, single point].
With CNc1nc(-c2c(C)[nH]c3ccc(OC)cc23)cs1 the Potency was inconclusive: 35.5 µM [activator, partial curve, poor fit].
For CCCCC(=O)Nc1ccc(NC(=O)c2ccccc2OC)cn1, the “growth rescue (activation)” value was inactive: -0.153%.
In the case of Cc1ccccc1NC(=O)CN1C(=O)CCSc2ccccc21, the “growth rescue (activation)” value is reported as inactive: 1.83%.
In the case of Cc1ccc(C(=O)NC(c2ccccc2)C(Cl)Cl)cc1 (configuration not stated), the Potency is reported as inconclusive: 12.6 µM [activator, partial curve].
For CC(=O)c1ccc(N2CCN(C(=O)c3ccc(Cn4c(=O)[nH]c5ccccc5c4=O)cc3)CC2)cc1, the “growth rescue (activation)” value was inactive: -11.3%.
For CCOC(=O)C1CCN(C(=O)c2oc3ccc(S(=O)(=O)N4CC(C)CC(C)C4)cc3c2C)CC1 (configuration not stated), the Potency was inconclusive: 39.8 µM [activator, partial curve, poor fit].
In the case of CC(C)c1ccc(NC(=O)C2(C)Cc3ccccc3C(=O)O2)cc1 (configuration not stated), the “growth rescue (activation)” value is reported as inactive: 18.2%.
For Cc1cccn2c(=O)c(/C=C(\C#N)S(=O)(=O)c3ccc(Cl)cc3)c(N3CCC(C(N)=O)CC3)nc12, the Potency was inconclusive: 22.4 µM [activator, partial curve, poor fit].
For O=C1c2ccccc2-c2n[nH]c(=O)c3ccc(N4CCCCC4)c1c23, the “growth rescue (activation)” value was inactive: 26%.
In the case of C/C(=N\OCC(=O)OC(C)C(=O)Nc1ccc(C)c(S(=O)(=O)N2CCOCC2)c1)c1ccc2c(c1)OCO2 (configuration not stated), the Potency is reported as inconclusive: 28.2 µM [activator, single point].
For O=C(COc1ccc(Cl)cc1Cl)NCCCCc1ccccc1, the Potency was inconclusive: 25.1 µM [activator, partial curve, poor fit].
For COc1ccc(S(=O)(=O)NCc2ccc(C(=O)NCc3ccccc3)cc2)cc1, the “growth rescue (activation)” value was inactive: -5.04%.
In the case of O=C1CC(NNc2ccccc2)C(=O)N1c1cccc(Cl)c1 (configuration not stated), the Potency is reported as inconclusive: 39.8 µM [activator, single point].
In the case of COc1ccc(NC(=O)C/C(C)=N/NC(=O)c2cccs2)c([N+](=O)[O-])c1, the Potency is reported as inconclusive: 44.7 µM [activator, single point].
In the case of CCC(C)N(C(=O)Cn1nc(Cc2ccncc2)c2ccccc2c1=O)C(C)CC (configuration not stated), the “growth rescue (activation)” value is reported as inactive: 21.1%.
With COc1ccc(S(=O)(=O)Nc2ccc3c(c2)C(=O)N([C@H](C)CO)C[C@H](C)[C@@H](CN(C)C(=O)Nc2ccc(C(F)(F)F)cc2)O3)cc1 the Potency was inconclusive: 28.2 µM [activator, partial curve].
For Cc1cnc(C(=O)Nc2cccc3cccnc23)cn1, the “growth rescue (activation)” value was inactive: -3.87%.
For CC(=O)c1cccc(NC(=O)c2cc3nc(-c4ccc(Br)cc4)cc(C(F)(F)F)n3n2)c1, the Potency was inconclusive: 50.1 µM [activator, single point].
With CSCCCNC(=O)c1cn(C(C)c2ccccc2)nn1 (configuration not stated) the “growth rescue (activation)” value was inactive: -17.1%.
With CCc1nc2ccc(C(=O)Nc3cc(-c4ccccc4)ccc3OC)cn2c1N(CC)CC(=O)N(C)C the Potency was inconclusive: 15.8 µM [activator, partial curve].
For CCc1nnc(N/N=C/c2ccc(N3CCC(C)CC3)c([N+](=O)[O-])c2)n1N, the Potency was inconclusive: 31.6 µM [activator, single point].
With COc1ccc(Cl)cc1NC(=O)Cn1cc2c(n1)CCC(C)C2 (configuration not stated) the “growth rescue (activation)” value was inactive: -22.5%.
In the case of CCOC(=O)[C@]12CCC=C1N(Cc1ccc(Cl)cc1Cl)C(=O)[C@H](CC(=O)NCC1CCCCC1)C2, the Potency is reported as inconclusive: 35.5 µM [activator, single point].
In the case of Oc1ccc(-c2csc(Nc3ccc4c(c3)OCO4)n2)c(O)c1, the Potency is reported as inconclusive: 50.1 µM [activator, single point].
In the case of CCOC(=O)C1CCCN(C2=NC(=O)/C(=C/c3ccc(OC)cc3OC)S2)C1 (configuration not stated), the Potency is reported as inconclusive: 22.4 µM [activator, single point].
With COc1ccc(C(CNC(=O)c2cc(=O)[nH]c3ccccc23)N2CCCC2)cc1 (configuration not stated) the Potency was inconclusive: 11.2 µM [activator, partial curve, poor fit].
With CCCCn1nnnc1C(c1ccccc1)N1CCN(c2ccc(OC)cc2)CC1 (configuration not stated) the “growth rescue (activation)” value was inactive: 27.3%.
For Cc1cc(Cl)c2oc(C(=O)N3CCN(C(=O)c4ccco4)CC3)c(C)c2c1, the Potency was inconclusive: 10 µM [activator, partial curve].
With Cc1cc(N2CCN(C(=O)c3ccco3)CC2)n2nc(-c3cccc(Cl)c3)cc2n1 the Potency was inconclusive: 56.2 µM [activator, single point].
With COc1ccc(NC(=O)c2cn3c4c(ccc(Cl)c4c2=O)OC(C)C3)cc1OC (configuration not stated) the Potency was inconclusive: 35.5 µM [activator, single point].
In the case of O=C(CSc1nnc(NC(=O)C2CC(=O)N(c3ccc(F)cc3)C2)s1)NCc1ccco1 (configuration not stated), the Potency is reported as inconclusive: 25.1 µM [activator, single point].
With CN(CC(=O)Nc1ccc(Cl)cc1)C(=O)c1sccc1-c1ccccc1 the “growth rescue (activation)” value was inactive: 17.6%.
In the case of COc1ccc(C(=S)N2CCOCC2)cc1OC(=O)c1cc([N+](=O)[O-])c(C)c([N+](=O)[O-])c1, the Potency is reported as inconclusive: 17.8 µM [activator, partial curve, poor fit].
For COc1cc2c(cc1OC)-c1cc(Nc3ccc(N(C)C)cc3)nc(=O)n1CC2, the Potency was inconclusive: 35.5 µM [activator, single point].
With COc1cc(/C=N/NC(=S)Nc2cccc(S(=O)(=O)N(C)C)c2)ccc1O the Potency was inconclusive: 22.4 µM [activator, partial curve, poor fit].
For O=C(NNC(=O)c1cc(-c2ccc(Br)cc2)nc2ccccc12)c1csc(N2CCOCC2)n1, the Potency was inconclusive: 12.6 µM [activator, partial curve, poor fit].
In the case of COc1ccc(S(=O)(=O)N2CCN(CC(=O)Nc3ccc(Cl)c(C(F)(F)F)c3)CC2)cc1, the Potency is reported as inconclusive: 28.2 µM [activator, single point].
With CC(C)c1ccc(C(=O)CN2C(=O)NC3(CCc4ccccc43)C2=O)cc1 (configuration not stated) the Potency was inconclusive: 50.1 µM [activator, single point].
With COc1ccc(CNC(=O)c2cc3cccc4c3n2CC(C)S4)c(OC)c1 (configuration not stated) the Potency was inconclusive: 31.6 µM [activator, single point].
With O=S(=O)(NCc1cccnc1)c1ccc(Cl)nc1 the growth rescue (activation) was inconclusive: 71.8% [activator].
In the case of COc1ccc(C(=O)Oc2cc(-c3ccc4c(c3)OCO4)cc(=O)c3c(C)oc(C)c23)cc1, the Potency is reported as inconclusive: 35.5 µM [activator, single point].
In the case of COc1ccccc1NC(=S)N(Cc1ccco1)Cc1cc2ccc(C)c(C)c2[nH]c1=O, the Potency is reported as inconclusive: 11.2 µM [activator, partial curve, poor fit].
In the case of C[C@H](O)[C@@H]1C(=O)N2CCc3ccc(-c4cccc(F)c4)cc3[C@@H]2C[C@@H]1N(C)S(=O)(=O)c1ccccc1, the Potency is reported as inconclusive: 50.1 µM [activator, single point].
In the case of CCCCOc1ccc(CNC(=O)Cc2ccc(NC(=O)N3CCSc4ncccc43)cc2)cc1, the Potency is reported as inconclusive: 35.5 µM [activator, single point].
